Results from PubChem BioAssay AID1159614 (National Center for Advancing Translational Sciences (NCATS), 2016).
The whole screen tested about 45,000 compounds, of which about 65 (0.1%) were called active. Calls come from the whole dose curve; as a rule, active = well fitted activation curve with a large enough effect; inconclusive = small, poorly fitted or top-dose-only effect; inactive = no such curve, though single readings can be large or run the other way. Some of the results follow.

Each compound was assayed against Galactocerebrosidase (Homo sapiens) (UniProt P54803) (assay: A Novel Cell-Based Assay to Identify Small Molecules for B -Galactocerebrosidase). Details: 145M-Twi-hGALC-G270D cells (Twitcher mouse brain line with human GALC G270D), HMU-beta-Gal fluorescence, 48 h; series mostly up to 57.5 µM; activation: at the top concentration.
UniProt P54803, sequence (P54803 whole entry, looked up): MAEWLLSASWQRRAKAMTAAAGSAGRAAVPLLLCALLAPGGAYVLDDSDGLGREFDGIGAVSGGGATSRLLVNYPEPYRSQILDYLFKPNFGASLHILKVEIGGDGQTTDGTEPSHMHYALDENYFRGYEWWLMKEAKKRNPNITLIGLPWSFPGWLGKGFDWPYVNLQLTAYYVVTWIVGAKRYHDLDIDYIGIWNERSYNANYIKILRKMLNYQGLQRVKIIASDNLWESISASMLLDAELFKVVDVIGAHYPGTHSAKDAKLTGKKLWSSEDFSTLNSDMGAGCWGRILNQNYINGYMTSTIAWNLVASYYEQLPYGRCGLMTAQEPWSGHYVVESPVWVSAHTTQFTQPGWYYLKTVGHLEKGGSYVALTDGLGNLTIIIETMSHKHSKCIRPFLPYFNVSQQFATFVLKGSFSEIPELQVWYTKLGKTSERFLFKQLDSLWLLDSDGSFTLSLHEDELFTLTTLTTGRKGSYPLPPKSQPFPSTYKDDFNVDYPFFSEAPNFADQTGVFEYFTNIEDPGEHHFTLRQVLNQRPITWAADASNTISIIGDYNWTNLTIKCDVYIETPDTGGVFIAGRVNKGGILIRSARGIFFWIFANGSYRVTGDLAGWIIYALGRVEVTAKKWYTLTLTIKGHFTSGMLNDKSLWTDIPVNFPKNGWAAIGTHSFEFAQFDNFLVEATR
Summary of the method: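 Fluorogenic HMU-b-Gal hydrolysis (0.1 mM final, pH 5.2 citrate-phosphate with 1 mg/mL sodium taurocholate; carbonate stop buffer) measures mutant GALC activity after compound treatment of live 145M-Twi Twitcher brain cells stably carrying human GALC-G270D, with wild-type GALC line alongside; activation sought.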
Note: 0% is about no effect; nearly all actives have a fitted effect of over 65% in size.

activation, inactive:
O=C(CSCn1nnc2c(=O)[nH]c(Cc3ccc(F)cc3)nc21)Nc1cccc(C(F)(F)F)c1 -12.9%, CN1CCC(OC(c2ccccc2)c2ccccc2)CC1 -17.1%, CCOc1ccc(NC(=O)c2ccc3[nH]c(C)c(C)c3c2)cc1 -1.15%, Cc1ccc(S(=O)(=O)Nc2cccc(-c3cn4cccc(C)c4n3)c2)c(C)c1 -6.15%, O=C(Cn1c(=O)c2cccn2c2cccnc21)NCc1cccc(F)c1 -6.7%, O=C(Cn1c(SCc2ccccc2F)nc2ccncc21)Nc1ccccc1C(F)(F)F -9.45%, CNC(=O)CCCN1C(=O)c2cccnc2Sc2ccccc21 -14.3%, CCOc1cc(C(=O)NCCc2sc(-c3ccc(F)cc3)nc2C)cc(OCC)c1OCC -20.1%, Cc1nc2n(c(=O)c1CCN1CCC(C(=O)c3ccc(F)cc3)CC1)CCS2 -8.53%, Cc1nc2ccc(S(=O)(=O)N(CC(=O)Nc3ccc(F)cc3F)Cc3ccccc3)cc2s1 -6.07%, CCCCC(=O)OC1=C(C(=O)c2ccccc2)N(CCC)S(=O)(=O)c2ccccc21 -39.9%, Cc1ccsc1CN1CCc2nc(Nc3ccccc3)ncc2C1 5.35%, CC(NC(=O)CSc1n[nH]c(-c2ccccc2Cl)n1)c1nc2ccccc2[nH]1 (stereo unspecified) -14.4%, CN(C)C(=O)Oc1cccc([N+](C)(C)C)c1 -6.95%, CCCCN(C)C(=O)c1cn(C)c2ccc(S(=O)(=O)N3CCC(C)CC3)cc2c1=O -20.5%, Cc1ccccc1NC(=O)Cn1cc(C(=O)c2cccs2)c2ccccc21 -7.26%, O=C(Cn1ccc2cc(S(=O)(=O)N3CCCCC3)ccc21)NCCc1ccccc1Cl 2.63%, COc1ccccc1NC(=O)Cn1c(=O)n(Cc2ccccc2)c(=O)c2c1c1cc(C)ccc1n2C -8.01%, O=c1[nH]cnc2[nH]ncc12 -12.2%, CCNc1nc(NCc2ccc(F)cc2)c2cnn(C)c2n1 -6.43%, O=C(c1cnn(-c2ccc(F)cc2)c1-n1cccc1)N1CCN(c2ccc(F)cc2)CC1 -36.9%, CC1CCN(S(=O)(=O)c2ccc3c(c2)CCN3)CC1 3.52%, CC1=C(C(=O)Nc2cccc(Cl)c2C)C2(CCCCCC2)OC1=O -3.19%, COc1ccc(CC(=O)Nc2sc3c(c2C(=O)Nc2ccccc2)CCCCC3)cc1 -20.1%, O=S(=O)(NCCS(=O)(=O)N1CCN(c2ccccc2)CC1)c1ccc(Br)cc1 -4.96%, CCc1ccc(S(=O)(=O)c2nnn3c2nc(Nc2cc(OC)ccc2OC)c2sccc23)cc1 -0.529%, COc1ccccc1Nc1sc(C(=O)c2ccc(C)cc2C)c(N)c1S(=O)(=O)c1ccccc1 -18%, Cc1ccc2oc(C(=O)Nc3cccc(Cl)c3)cc(=O)c2c1 -2.27%, O=C(Cc1ccccc1)Nc1sc2c(c1C(=O)Nc1ccc(Br)cc1)CCC2 -11.7%, COc1ccccc1C(=O)Nc1ccccc1OCc1cc(=O)n2ccccc2n1 -16.5%, Cc1c(C(=O)Nc2nc(-c3ccc(F)cc3)ns2)oc2ccc(Cl)cc12 -21.1%, Cc1ccc(CCNC(=O)CS(=O)Cc2nc(-c3ccccc3Cl)oc2C)cc1 (stereo unspecified) -17%, COc1ccc(CNc2nc3c(-c4ccccc4)nnn3c3ccccc23)cc1 -13.5%, COc1cccc(N2CC(NC(=O)c3ccc(S(=O)(=O)N4CCOCC4)cc3)CC2=O)c1 (stereo unspecified) -13.2%, O=C(Nc1ccc(F)cc1)c1csc2c1CCCCC2 1.56%, C/C=C1\[C@H]2C=C(C)C[C@]1(N)c1ccc(=O)[nH]c1C2 -12.5%, O=C(CS)Nc1ccccc1 13.1%, O=C(NCCc1ccccc1)c1nc(-c2ccc(Cl)cc2)n2c1CCCCC2 -13.5%, CCc1ccc(CNC(=O)c2c(C)oc3ncnc(N4CCOCC4)c23)cc1 -7.69%, COc1cc2ccccc2cc1C(=O)Nc1ccc2oc(-c3ccc(F)cc3Cl)nc2c1 -34.3%, COc1cccc(C(=O)Nc2c(C(=O)N3CCN(c4ccc(F)cc4)CC3)oc3ccccc23)c1 -0.575%, CN(C)CCCN1c2ccccc2CCc2ccccc21 -15.2%, CCOc1ccc(C(=O)c2oc3ccccc3c2NC(=O)Cc2coc3ccc(CC)cc23)cc1 -16.8%, Cc1cccc(NC(=O)N2CCC3(CC2)Oc2ccccc2C(=O)N3Cc2ccccc2F)c1C -8.93%, O=C(Cc1ccc(F)cc1)Nc1nnc2n1CCS2 -16.4%, COc1ccccc1NC(=O)CSc1nc(-c2ccc(C(C)(C)C)cc2)c(C#N)c(=O)[nH]1 -7.15%, Cc1cccc(N2CCN(CCNC(=O)Nc3ccc(Cl)cc3)CC2)c1C -26%, O=C(NCCn1ccc2ccccc21)c1ccc(Cl)cc1 -6.61%, CCc1ccccc1OCC(=O)Nc1ccc(S(=O)(=O)Nc2nc(C)cc(C)n2)cc1 -13%, CCOc1ccccc1-n1nnc(-c2nsc(NC(=O)c3ccc(C)cc3)n2)c1C -8.73%, CCc1cccc(-n2c(=O)c3cccnc3n2CC(=O)Nc2ccc(F)c(C)c2)c1 -21.2%, CC(C)c1ccc(Nc2cc(C(=O)NC3CCCCC3)c3ccccc3n2)cc1 -19.6%, CCc1ccc2occ(CC(=O)Nc3ccccc3C(F)(F)F)c2c1 -14.4%, CSc1cccc(Nc2cc(C(=O)NCCCN(C)c3ccccc3)c3ccccc3n2)c1 -29.9%, CCOC(=O)c1c(-c2ccc(C)cc2)csc1NC(=O)c1cc(=O)c2ccc(C)cc2o1 -5.61%, COc1ccc(/C=C/C(=O)Nc2nc3n(n2)C(c2ccc(F)cc2)C=C(c2ccccc2)N3)cc1 (stereo unspecified) -2.66%, COc1ccc(NC(=O)Cn2c(=O)n(Cc3nc(-c4ccccc4)no3)c(=O)c3ccccc32)cc1Cl -27.8%, CCCCCCCCCCC(CO)CCCCCCCC (stereo unspecified) -14.8%, CC(=O)N1CCc2cc(S(=O)(=O)NC(C(=O)Nc3ccc(C)cc3C)C(C)C)ccc21 (stereo unspecified) 1.88%, COc1ccc(NC(=O)C2CCCN(S(=O)(=O)c3ccc(Br)s3)C2)cc1 (stereo unspecified) -5.12%, COc1cc(C(=O)n2nc(C)c(Sc3ccc(Cl)cc3)c2C)cc(OC)c1OC -23.1%, CC(C)c1ccc(NC(=O)CN2C(=O)COc3ccc(S(=O)(=O)N4CCCCCC4)cc32)cc1 -12.5%, CCc1ccc(NC(=O)Cn2c(=O)n(Cc3ccco3)c(=O)c3oc4ccccc4c32)cc1 -17.1%, O=C(NCc1cccs1)c1ccc(CSc2nc3cccnc3n2Cc2ccccc2F)cc1 -1.02%, CCOC(=O)c1c(NC(=O)c2cc(-c3cccc(OC)c3)on2)sc2c1CCCC2 -21.6%, COc1ccc(CC(=O)NCC(c2cccs2)S(=O)(=O)c2ccc(C)cc2)cc1 (stereo unspecified) 8.38%, COc1cccc(CNC(=O)Cc2c(C(=O)O)c(C)cn2C)c1 -5.18%, CCN(CC)C(=O)c1ccc(Nc2nnc(-c3ccc(C)c(S(=O)(=O)NC)c3)c3ccccc23)cc1 -9.38%, CCc1cccc(N2C(=O)CSC23C(=O)Nc2ccccc23)c1 (stereo unspecified) -11.7%, COc1ccc(S(=O)(=O)Nc2c(C)nc3nc(C)[nH]n3c2=O)cc1 2.11%, Cc1cc(C)c(NC(=O)Cn2cnc3c(oc4ccccc43)c2=O)c(C)c1 -11.3%, Cc1oc(-c2ccccc2Cl)nc1CSc1nc2ncccc2[nH]1 -5.42%, CCOC(=O)c1c(C)n(-c2ccccc2)c2ccc(OC(=O)c3cccc(OC)c3OC)cc12 -12.4%, COc1ccccc1N1CCN(c2ncnc3onc(-c4cccc(Cl)c4)c23)CC1 -9.65%, O=C(NCc1cccc(Cl)c1)c1ccc2nc(N3CCCCC3)sc2c1 -1.08%, CC1CCN(C(=O)c2cc(-c3ccc(Br)cc3)on2)CC1 -43.5%, CCc1nnc2c(N3CCN(c4cc(Cl)ccc4C)CC3)nc3ccccc3n12 -17.9%, CCOC(=O)C1CCCN(C(=O)c2nn(-c3ccc(C)cc3)c(=O)n(C)c2=O)C1 (stereo unspecified) -17.3%, CCOc1ccc(CNS(=O)(=O)c2ccc3c(c2)CCCN3C(C)=O)cc1OC -16.2%, CCCN(C(=O)c1cc2c(=O)[nH]c3ccc(C)cc3c2s1)c1ccc(CC)cc1 -16.1%, O=C(COc1ccc(F)cc1)Nc1ccc2nc(SCC(=O)N3CCOCC3)sc2c1 -1.32%, COc1ccc(-c2noc(COc3cc(C)ccc3C)n2)cc1OC -3.99%, O=C1[C@@H]2CSC(c3ccc(Cl)cc3)N2C(=O)N1c1ccccc1 (stereo partly specified) 0.282%, CC(C)c1ccc(N2C(=O)CSC23C(=O)N(C)c2ccccc23)cc1 (stereo unspecified) -4.15%, COc1ccc(C2=C(C)C(=O)N(Cc3ccc(C(=O)NCc4cccc(C)c4)cc3)S2(=O)=O)cc1 16.9%, COc1ccc2c(c1)c(N1CCCC1=O)c(C(=O)Nc1ccccc1C(F)(F)F)n2C -19%, COc1ccc(-c2noc(N3CCC(C(=O)N4CCN(c5cccc(C)c5C)CC4)CC3)n2)cc1 -8.26%, COc1ccc(C2=NC(c3ccncc3)=Nc3ccc(OC)cc3N2)cc1 -27.3%, CCOc1ccc(NC(=O)CCNS(=O)(=O)c2cccc3nonc23)cc1 -5.49%, CC(C)OCCCNC(=O)c1ccc(CSc2nc3cccnc3n2Cc2ccccc2)cc1 -33.7%, COc1ccc(-c2nc3ccc(NS(=O)(=O)c4ccc(C)cc4)cc3o2)cc1 -0.487%, O=C(OCc1cc(=O)n2nc(-c3cccs3)sc2n1)c1ccc(Cl)cc1 -9.7%, O=C(CN1C(=O)COc2ccc(Cl)cc21)Nc1ccc(F)cc1 -5.71%, CCN(C(=O)c1nn(-c2ccc(OC)c(Cl)c2)c(=O)c2c1c1ccccc1n2C)c1cccc(C(F)(F)F)c1 -21.4%, CCCOc1cccc(C(=O)Nc2cccc3cccnc23)c1 -18.3%, Cc1cc(CN2CCN(c3ccccc3F)CC2)cs1 -7.91%, CCOc1ccc(CNCc2c(C(=O)O)c(C)n(Cc3cccc(OC)c3)c2C)cc1OC -3.33%, O=C(CCC(=O)N1CC2CCCN2c2ccccc21)NCc1ccc(Cl)cc1 (stereo unspecified) -3.95%, CCC1CCC(C(=O)NC(C(=O)Nc2cccc(OC)c2)C(C)C)CC1 (stereo unspecified) -5.71%, Cc1nc2nc(CNC(=O)OC(C)(C)C)nn2c(C)c1CCC(=O)NCc1ccc(F)cc1 8.25%, Cc1nc2sccn2c(=O)c1S(=O)(=O)Nc1ccc(N2CCOCC2)c(Cl)c1 -5.5%
